The text below walks through data of the supplement of paper PMC10338343.

± gives the standard deviation. Only a part is listed here, and it is no random draw. Some results are limits rather than exact numbers.
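Further: 1 nM active piRISC with 0.1 nM target library at 33 °C single turnover.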

The assay concerns MIWI (PIWIL1) piRISC loaded with L1MC piRNA (30 nt). Description: pre-steady-state target cleavage rate (min^-1); MIWI and MILI are mouse PIWI proteins and EfPiwi is from a freshwater sponge; tags in brackets are library labels; higher = faster piRNA-guided slicing of the target. To be noted: guide: L1MC piRNA 5'p-UAACUAAAUACUAUGCAAGCUGUAGGUCCU; auxiliary factor: 500 nM mouse GTSF1. The procedure, abridged: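 The pre-steady-state cleavage rate was derived from a burst-and-steady-state fit of Cleave-'n-Seq data. For these assays, 1 nM active affinity-purified piRISC loaded with a single synthetic guide was mixed with […] a transcribed, DNA-blocked target RNA library in HEPES–potassium acetate buffer at 33 °C, with or without 500 nM GTSF1 partner protein, for 0–8 or 0–960 min. Sequencing counts of uncleaved targets were normalised to depth and to weakly complementary targets, and k3 was capped at 0.0001 min^-1 after three trials were pooled.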
Regarding UGGUGCUACAGCUUGCAUAGUAUUUUCAAA, the “pre-steady-state target cleavage rate” value worked out at 0.191 ± 0.032. In the case of UCCUGGAUCAGCUUGCAAUGUAUUUAGAAA, the “pre-steady-state target cleavage rate” value worked out at 0.0215 ± 0.008.

For the sequence “UCCUGGAUGUCGAUGCAUAGUAUUUAGUUG [g2:g17:cont:t1G]”, the “pre-steady-state target cleavage rate” value was 0.00361 ± 0.003. As for UCCUGGAUGUCGAGGCAUAGUAUUUAGUUA, the “pre-steady-state target cleavage rate” value worked out at 0.0222 ± 0.0065. In the case of UCCUGGAUGUGCAACCAUAGUAUUUAGUUA, the “pre-steady-state target cleavage rate” value came out at 0.00823 ± 0.0027. In the case of UCCUGGAUGUGCUUGCAAGUAUUUAGUUA, the “pre-steady-state target cleavage rate” value was determined as 0.00394 ± 0.0033. With UCGACCUACAGCUUGGUUAGUAUUUUCAAA the figure was 0.0241 ± 0.0089; with UCCUGGAUGUCGUUGCAUAGUAUUAUAGUUA, 0.00606 ± 0.0038; with UCCUGGAUGUCGAACCAUAGAAUUUUGUUA, 0.146 ± 0.086. With UCCUGGAUGAGCUUGCAUGUAUUUAGUUA the figure was 0.00564 ± 0.0034; with UCCUGGUACAGCUUGCAUAGUAUUUUCAAA, 0.181 ± 0.03; with UCCUCCUACAGCUUGCAUAGUAUUAUGUAA, 0.142 ± 0.038. UCCUGGAUGUCGUUGCAUAGUAUUUACGUUA: the “pre-steady-state target cleavage rate” value was 0.00982 ± 0.0038. For the sequence UGGACCUACAGCUUCGUUAGUAUUUAGUUA, the “pre-steady-state target cleavage rate” value was determined as 0.0729 ± 0.011. For the sequence UCGACCUAGUCCUUGCAUAGUAUUUUCAAA, the “pre-steady-state target cleavage rate” value is 0.146 ± 0.03. UCCACCUACAGCUUCGAUAGUAUUUAGAAA: the “pre-steady-state target cleavage rate” value was found to be 0.0807 ± 0.021. With UCCUGGAUGUCGAACGUAUCUAUGUUAGUUA, the “pre-steady-state target cleavage rate” value was under 0.0001.

UCCUGGAUGUCGUUGCAUAUUAUUUAGUUA: the “pre-steady-state target cleavage rate” value amounted to 0.00752 ± 0.0039. With UGGACCUACAGCUUGCAUAGAUAUUAGUUA, the “pre-steady-state target cleavage rate” value worked out at 0.0135 ± 0.0047. As for UGGACCUACAGCUUCGAUAGUAUUUACAAA, the “pre-steady-state target cleavage rate” value came to 0.00855 ± 0.0027. Turning to UCCUGCUACAGCUUGCAUACGUAUUUAGUUA, the “pre-steady-state target cleavage rate” value turned out to be 0.00451 ± 0.0041. The figure for UCCUGGAUGACCUUGCAUAGUAUUAAGUUA is 0.0362 ± 0.0085; for UGGACCUACAGCUUGCAUAGUUUUAGUUA it is 0.00797 ± 0.0033. For the sequence ACCUCCUACAGCUUGCAUAGUAUUUUCAAA, the “pre-steady-state target cleavage rate” value worked out at 0.582 ± 0.073. As for UCCUGGUACAGGAUGCAUAGUAUUUAGUAA, the “pre-steady-state target cleavage rate” value was 0.279 ± 0.04. Regarding AGGACCUACAGCUUCCAAAGUAUUUAGUUA, the “pre-steady-state target cleavage rate” value was found to be 0.524 ± 0.034.

With UCGACCUACAGCUUGCAUAGUAAUUUCAAA, the “pre-steady-state target cleavage rate” value stood at 0.359 ± 0.07. The figure for UCCUGCUACAGCUUGCAUAGUAAAAAGAAA is 0.07 ± 0.02; for UCCACCUACAGCUUGUCAUAGUAUUUAGUUA it is 0.363 ± 0.033; for UCCUGGUAGAGCUUGCAUAGUAUUUUCAAA it is 0.0173 ± 0.0053. Consider AGGUGGUACAGCUUGCAUAGUAUUUACAAA, for which the “pre-steady-state target cleavage rate” value was 0.107 ± 0.024. Consider UCGACCUACAGCUUGCAUAGUAUAAAGAAA, for which the “pre-steady-state target cleavage rate” value worked out at 0.417 ± 0.064. Regarding UCCUGGAUGUCGAUGCAUAGUACUUAGUUA, the “pre-steady-state target cleavage rate” value was 0.00401 ± 0.0026. As for UCCUCCUACAGCUUGCUUAGUAUUUACAAA, the “pre-steady-state target cleavage rate” value was determined as 0.218 ± 0.035.

Take UCCUGGAACAGGUUCCAUAGUAUUUAGUUA: the “pre-steady-state target cleavage rate” value is 0.182 ± 0.046. Take UGGACCUACAGCUUGCAUAGUAUAAUGAAA: the “pre-steady-state target cleavage rate” value stood at 0.192 ± 0.036. On to UCCUGCUACAGCUUGCAUAGUAUUUUCAAA, for which the “pre-steady-state target cleavage rate” value is 0.335 ± 0.059.
